Several values for one entry are separate records, joined by “and”; a condition that tells them apart may be missing. Identical values can stand only once. This list was built around the results that the source calls inconclusive (neither active nor inactive); the mix of calls is not that of the screen. For some assays here: Potencies beside an inconclusive call are fits to weak or partial responses and may not hold up. Some structures have more than one record in an assay (separate samples or runs), and their calls can disagree. Activity calls are given as the source filed them. Unless noted, calls come from the whole dose curve; as a rule, active = well fitted curve in the direction sought with a large enough effect in the repeat runs; inconclusive = weak or mixed curves; inactive = no such curve, though single readings can be large; an effect the other way counts as inactive or inconclusive.
Key:
[1] = qHTS assay to identify small molecule HDAC inhibitors (AID 1259364); note: potency is the fitted concentration of half-maximal effect;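 note: wild-type HCT-116 cells with endogenous class I/II HDAC activity; nearly all actives have a fitted effect of over 45% in size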; for activity change, negative = inhibition: top concentration of the series differs between compounds; % is set by controls: 0 for no effect and ±100 for the full control effect
Outline: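 Cells (HCT-116, wild type) are seeded at 1,500 per well, incubated overnight, treated with compound in DMSO for 2 hr, then developed with HDAC-Glo I/II reagent for 30 min at room temperature.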

[2] = qHTS assay to identify small molecule antagonists of the sonic hedgehog signaling (Shh) pathway - cell viability counter screen (AID 1259367); note: potency is the fitted concentration of half-maximal effect; nearly all actives have a fitted effect of over 55% in size
Outline: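 CellTiter-Fluor signal in conditioned medium-stimulated 3T3 Gli1-Luc cells, 23 hr compound exposure, 37C.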

[3] = qHTS assay to identify small molecule antagonists of the sonic hedgehog signaling (Shh) pathway (AID 1259369; calls by dose curve; note: potency is the fitted concentration of half-maximal effect; nearly all actives have a fitted effect of over 45% in size)
Outline: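 Cells are plated and held 4hr at 37 C, compounds (DMSO) are pinned in, conditioned medium is added to stimulate the pathway, and after 24hr luciferase reagent is added for 30min before luminescence is read.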

[4] = qHTS assay to identify small molecule agonists of the estrogen receptor beta (ER-beta) signaling pathway - cell viability counter screen (AID 1259380); note: potency is the fitted concentration of half-maximal effect; nearly all actives have a fitted effect of over 30% in size
Outline: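 Cytotoxicity is measured in parallel with the reporter screen: after 16 hr compound exposure at 37C and a 2 hr LiveBLAzer step, CellTiter-Glo is added to the same ER-beta-UAS-bla HEK293T wells and luminescence read after 30 min.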

[5] = qHTS assay to identify small molecule agonists of the estrogen receptor alpha (ER-alpha) signaling pathway in the presence of an antagonist - cell viability counter screen (AID 1259386);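 note: potency is the fitted concentration of half-maximal effect; cells exposed to compounds for 22 h at 37 °C before the viability read; nearly all actives have a fitted effect of over 30% in size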
Outline: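 Cytotoxicity was measured in parallel with the ERE-luciferase agonist screen, in the same wells. The cells were VM7Luc4E2, which endogenously express ER-alpha, and treatment was with compounds plus 10.0nM ICI-182,780 for 22hr.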

[6] = target: Progesterone receptor (Homo sapiens) (UniProt P06401); test: qHTS assay to identify small molecule antagonists of the progesterone receptor (PR) signaling pathway (AID 1346795; active = well fitted inhibition curve with a large enough effect in the signal ratio in the repeat runs, not every such curve was filed as active; inconclusive = weak or mixed curves; the % refers to the signal ratio; note: potency is the fitted concentration of half-maximal effect; for activity change, negative = inhibition: % is set by controls: 0 for no effect and ±100 for the full control effect); settings: PR-UAS-bla HEK293T, beta-lactamase FRET ratio, 16 h; activity change, negative = inhibition: at 92.4 µM (top of the series) unless noted
Outline: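 HEK293T PR-UAS-bla reporter cells in charcoal-stripped serum (2%) received compound after a 6 hr settling period, followed by R5020 agonist at 1 nM final; 16 hr incubation preceded the FRET substrate step and fluorescence measurement.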

[7] = qHTS assay to identify small molecule antagonists of the progesterone receptor (PR) signaling pathway - cell viability counter screen (AID 1346798); note: potency is the fitted concentration of half-maximal effect; nearly all actives have a fitted effect of over 50% in size
Outline: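 Same-well multiplex: after 16 hr at 37C with compound and R5020 stimulation, HEK293T cells carrying a UAS-bla reporter received LiveBLAzer substrate (2 hr RT), then CellTiter-Glo (30 min RT) for luminescent viability.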

[8] = qHTS assay to identify small molecule agonists of the progesterone receptor (PR) signaling pathway - cell viability counter screen (AID 1346799; calls by dose curve; note: nearly all actives have a fitted effect of over 45% in size; note: potency is the fitted concentration of half-maximal effect)
Outline: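 Counter screen for cytotoxicity: compound-treated PR-UAS-bla HEK293T cells (16 hr, 37C, 5% CO2) were assayed with CellTiter-Glo, luminescence measured after 30 min at room temperature.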

[9] = qHTS assay to identify small molecule antagonists of the TGF-beta/Smad signaling pathway - cell viability counter screen (AID 1346824); note: % is set by controls: 0 for no effect and ±100 for the full control effect; nearly all actives have a fitted effect of over 50% in size
Outline: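 Cytotoxicity counter-screen run in the same wells as the beta-lactamase Smad reporter read: CellTiter-Glo luminescence after 30 min at room temperature. HEK 293T SBE-bla cells had 5 hr compound exposure at 37 C with TGF-beta1 (0.25 ng/mL stock).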

[10] = target: Estrogen receptor beta (Homo sapiens) (UniProt Q92731); test: qHTS assay to identify small molecule agonists of the estrogen receptor beta (ER-beta) signaling pathway (AID 1259377; active = well fitted activation curve with a large enough effect in the signal ratio in the repeat runs, not every such curve was filed as active; inconclusive = weak or mixed curves, or effect the other way; the % refers to the signal ratio; note: potency is the fitted concentration of half-maximal effect); settings: ER-beta-UAS-bla HEK293T, beta-lactamase FRET ratio, 16 h; activation: at 92.4 µM (top of the series) unless noted
Outline: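 A UAS-controlled beta-lactamase reporter in ER-beta-UAS-bla HEK293T cells reports receptor activation. Compounds act for 16 hr at 37C in 2% charcoal-stripped serum, and a FRET substrate is read by fluorescence after 2 hours.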

[11] = target: Estrogen receptor beta (Homo sapiens) (UniProt Q92731); test: qHTS assay to identify small molecule antagonists of the estrogen receptor beta (ER-beta) signaling pathway (AID 1259378; active = well fitted inhibition curve with a large enough effect in the signal ratio in the repeat runs, not every such curve was filed as active; inconclusive = weak or mixed curves, or effect the other way; inactive = no such curve, though single readings can be large or run the other way; the % refers to the signal ratio; note: % is set by controls: 0 for no effect and ±100 for the full control effect); settings: ER-beta-UAS-bla HEK293T, beta-lactamase FRET ratio, 16 h
Outline: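 Antagonist mode: compounds added to beta-lactamase reporter HEK293T ER-beta-UAS cells stimulated with E2 (1nM final), 16 hr at 37C. LiveBLAzer B/G FRET substrate, 2 hours room temperature, fluorescence read-out.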

[12] = target: Thyrotropin receptor (Homo sapiens) (UniProt P16473); test: qHTS assay to identify small molecule antagonists of the thyroid stimulating hormone receptor (TSHR) signaling pathway (AID 1259385; calls by dose curve; note: nearly all actives have a fitted effect of over 20% in size; note: potency is the fitted concentration of half-maximal effect; for activity change, negative = inhibition: % is set by controls: 0 for no effect and ±100 for the full control effect); settings: TSHR-HEK293 cAMP HTRF, TSH-stimulated antagonist mode; activity change, negative = inhibition: at 92.4 µM (top of the series) unless noted
Outline: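 Antagonist mode: compound-treated TSHR-expressing HEK293 cells were stimulated with 1.5 ng/mL TSH (final) in presence of Ro20-1724 for 30 min at RT. HTRF cAMP detection after 1 h; each compound tested at 15 concentrations, triplicate.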

[13] = target: Progesterone receptor (Homo sapiens) (UniProt P06401); test: qHTS assay to identify small molecule agonists of the progesterone receptor (PR) signaling pathway (AID 1346784; calls by dose curve; note: nearly all actives have a fitted effect of over 30% in size; note: potency is the fitted concentration of half-maximal effect); settings: PR-UAS-bla HEK293T, beta-lactamase FRET ratio, 16 h; activation: at 92.4 µM (top of the series) unless noted
Outline: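 Agonist mode, quantitative HTS format in a HEK 293T line expressing a UAS-controlled beta-lactamase reporter; 16 hr compound exposure at 37C in 2% charcoal-stripped FBS, then LiveBLAzer B/G FRET fluorescence.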

[14] = qHTS assay to identify small molecule HDAC inhibitors - cell viability counter screen (AID 1259365); note: potency is the fitted concentration of half-maximal effect; nearly all actives have a fitted effect of over 50% in size
Outline: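 Viability readout: CellTiter-Glo luminescence. Wild-type HCT-116 cells, 2hr compound treatment following overnight attachment at 37 C.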

[15] = qHTS assay to identify small molecule agonists of the androgen receptor (AR) signaling pathway in the presence of an antagonist - cell viability counter screen (AID 1259379); note: potency is the fitted concentration of half-maximal effect; nearly all actives have a fitted effect of over 25% in size
Outline: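 Cytotoxicity is assessed by CellTiter-Fluor in MDA-kb2 cells carrying an MMTV-driven luciferase reporter. Cells receive 3.0uM nilutamide plus compounds at 15 concentrations and incubate 16 hr at 37C without CO2 before fluorescence reading.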

[16] = qHTS assay to identify small molecule agonists of the sonic hedgehog signaling (Shh) pathway - cell viability counter screen (AID 1259366); note: potency is the fitted concentration of half-maximal effect; nearly all actives have a fitted effect of over 50% in size
Outline: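 Viability measured fluorometrically (CellTiter-Fluor, 1hr, 37C) in 3T3 Gli1-Luc reporter cells after 23hr compound exposure within a 24hr incubation at 37C/5% CO2.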

[17] = target: Estrogen receptor (Homo sapiens) (UniProt P03372); test: qHTS assay to identify small molecule agonists of the estrogen receptor alpha (ER-alpha) signaling pathway in the presence of an antagonist (AID 1259383; calls by dose curve; note: potency is the fitted concentration of half-maximal effect; nearly all actives have a fitted effect of over 15% in size)
Outline: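 Agonist-mode confirmation in the presence of the ER antagonist ICI-182,780 at 10.0nM final. Breast-derived VM7Luc4E2 reporter cells were exposed to compounds for 22hr, and ERE-driven luciferase was quantified by luminescence.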
Tags give direction and shape of the fitted curve or compound fluorescence and quenching.

UniProt P06401, sequence (P06401 whole entry, looked up): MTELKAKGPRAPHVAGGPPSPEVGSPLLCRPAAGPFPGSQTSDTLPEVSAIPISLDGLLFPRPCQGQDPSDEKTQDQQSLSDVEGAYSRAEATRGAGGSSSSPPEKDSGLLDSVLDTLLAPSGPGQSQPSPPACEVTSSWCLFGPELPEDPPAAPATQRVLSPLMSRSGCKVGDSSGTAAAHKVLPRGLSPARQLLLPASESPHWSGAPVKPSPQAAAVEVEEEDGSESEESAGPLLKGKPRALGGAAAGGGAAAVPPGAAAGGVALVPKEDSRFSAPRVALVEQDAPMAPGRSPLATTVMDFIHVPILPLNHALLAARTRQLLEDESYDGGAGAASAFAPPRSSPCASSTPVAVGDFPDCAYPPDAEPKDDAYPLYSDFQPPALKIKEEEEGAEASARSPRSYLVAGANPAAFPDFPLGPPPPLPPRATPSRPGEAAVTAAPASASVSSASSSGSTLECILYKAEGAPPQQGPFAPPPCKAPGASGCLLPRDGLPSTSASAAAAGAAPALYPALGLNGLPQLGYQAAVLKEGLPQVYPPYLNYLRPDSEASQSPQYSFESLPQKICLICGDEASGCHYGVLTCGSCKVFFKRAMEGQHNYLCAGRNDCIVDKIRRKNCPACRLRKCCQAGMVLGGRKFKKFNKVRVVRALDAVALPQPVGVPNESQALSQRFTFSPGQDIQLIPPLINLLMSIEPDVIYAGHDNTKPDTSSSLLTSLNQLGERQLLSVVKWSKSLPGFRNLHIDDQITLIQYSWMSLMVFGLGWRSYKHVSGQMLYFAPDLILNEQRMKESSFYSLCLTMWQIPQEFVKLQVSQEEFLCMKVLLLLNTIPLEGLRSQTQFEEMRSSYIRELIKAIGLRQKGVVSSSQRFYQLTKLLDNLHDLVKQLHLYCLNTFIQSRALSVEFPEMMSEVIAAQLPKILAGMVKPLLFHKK
UniProt Q92731, sequence (Q92731 whole entry, looked up): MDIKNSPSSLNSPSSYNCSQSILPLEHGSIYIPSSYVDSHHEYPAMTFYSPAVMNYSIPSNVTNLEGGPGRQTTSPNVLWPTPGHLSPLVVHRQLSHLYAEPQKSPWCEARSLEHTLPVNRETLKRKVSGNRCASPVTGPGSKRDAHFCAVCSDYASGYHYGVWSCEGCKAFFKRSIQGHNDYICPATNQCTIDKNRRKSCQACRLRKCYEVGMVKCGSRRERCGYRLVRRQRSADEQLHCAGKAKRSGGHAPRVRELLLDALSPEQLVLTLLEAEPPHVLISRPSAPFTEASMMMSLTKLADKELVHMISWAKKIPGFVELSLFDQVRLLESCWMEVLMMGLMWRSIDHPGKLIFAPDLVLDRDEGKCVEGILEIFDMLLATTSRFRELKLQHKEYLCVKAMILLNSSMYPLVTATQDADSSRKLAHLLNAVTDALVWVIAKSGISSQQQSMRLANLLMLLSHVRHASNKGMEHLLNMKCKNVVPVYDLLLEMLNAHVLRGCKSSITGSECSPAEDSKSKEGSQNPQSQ
UniProt P16473, sequence (P16473 whole entry, looked up): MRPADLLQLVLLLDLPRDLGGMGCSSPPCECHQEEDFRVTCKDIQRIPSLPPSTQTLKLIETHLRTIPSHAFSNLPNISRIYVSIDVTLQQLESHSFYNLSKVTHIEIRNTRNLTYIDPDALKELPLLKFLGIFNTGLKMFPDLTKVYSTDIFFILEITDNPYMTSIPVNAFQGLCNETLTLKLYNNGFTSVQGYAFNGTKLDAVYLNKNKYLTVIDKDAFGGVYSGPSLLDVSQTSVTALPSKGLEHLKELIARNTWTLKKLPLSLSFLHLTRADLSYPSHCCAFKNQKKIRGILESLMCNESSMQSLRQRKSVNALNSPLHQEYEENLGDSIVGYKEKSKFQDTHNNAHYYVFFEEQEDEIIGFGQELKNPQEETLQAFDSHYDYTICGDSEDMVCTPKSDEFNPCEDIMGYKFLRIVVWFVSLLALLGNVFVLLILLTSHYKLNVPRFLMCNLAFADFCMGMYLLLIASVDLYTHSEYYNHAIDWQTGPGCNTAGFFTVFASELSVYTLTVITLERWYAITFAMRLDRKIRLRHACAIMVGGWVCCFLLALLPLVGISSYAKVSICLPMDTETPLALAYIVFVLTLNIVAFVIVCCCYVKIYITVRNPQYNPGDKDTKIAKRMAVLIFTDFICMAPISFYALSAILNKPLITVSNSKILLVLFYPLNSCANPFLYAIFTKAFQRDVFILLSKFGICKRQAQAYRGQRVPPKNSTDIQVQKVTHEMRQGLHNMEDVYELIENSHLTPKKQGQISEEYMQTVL
UniProt P03372, sequence (P03372 whole entry, looked up): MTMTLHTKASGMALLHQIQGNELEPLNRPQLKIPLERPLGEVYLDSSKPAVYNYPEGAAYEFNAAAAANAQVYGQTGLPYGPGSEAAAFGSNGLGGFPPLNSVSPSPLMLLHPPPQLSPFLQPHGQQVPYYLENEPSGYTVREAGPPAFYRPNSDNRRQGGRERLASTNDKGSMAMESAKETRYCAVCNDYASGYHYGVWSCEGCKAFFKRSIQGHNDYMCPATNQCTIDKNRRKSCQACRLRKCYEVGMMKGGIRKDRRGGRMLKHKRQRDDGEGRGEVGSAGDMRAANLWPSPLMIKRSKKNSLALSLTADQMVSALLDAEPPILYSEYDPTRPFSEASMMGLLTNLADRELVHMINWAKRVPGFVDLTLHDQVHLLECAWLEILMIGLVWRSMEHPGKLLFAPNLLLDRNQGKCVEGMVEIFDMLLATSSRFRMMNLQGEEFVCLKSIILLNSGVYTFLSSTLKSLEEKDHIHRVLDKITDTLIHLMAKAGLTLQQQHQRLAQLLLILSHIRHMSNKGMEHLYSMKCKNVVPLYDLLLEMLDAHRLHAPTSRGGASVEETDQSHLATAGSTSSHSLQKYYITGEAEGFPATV

With `CC1CC(CC2CCC(N)C(C)C2)CCC1N` (stereo unspecified) the Potency [1] was “inactive”, the Potency [2] was inconclusive: 1.1 µM [cytotoxic, full curve, poor fit] and the Potency [3] was inconclusive: 0.494 µM [inhibitor, full curve]. The Potency [4] was inconclusive: 39.2 µM [cytotoxic, partial curve, poor fit], the Potency [5] was inconclusive: 17.5 µM [cytotoxic, partial curve] and the Potency [6] was “inactive”. For the same molecule, the Potency [7] was inconclusive: 5.54 µM [cytotoxic, full curve, poor fit], the Potency [8] was inconclusive: 4.93 µM [cytotoxic, full curve] and the Potency [9] was “inactive”.
In the case of `Nc1ccc(-c2ccc(N)cc2)cc1`, the Potency [1] was inconclusive: 43.3 µM [inhibitor, partial curve], the Potency [3] was inconclusive: 24.2 µM [inhibitor, partial curve, poor fit] and the Potency [10] was inconclusive: 60.4 µM [fluorescent, partial curve]. The activity, negative = inhibition ([11]; at 42.5 µM (top of the series)) was inconclusive: -27.9%, the activity, negative = inhibition ([11]; at 92.4 µM (top of the series)) was inconclusive: 13.1% and the Potency [4] was inconclusive: 7.64 µM [cytotoxic, full curve] and inconclusive: 68.6 µM [cytotoxic, partial curve, poor fit]. The Potency [12] was inconclusive: 34.1 µM [falling, partial curve] and inconclusive: 34.4 µM [falling, partial curve], the activity change, negative = inhibition [12] was inconclusive: -10.5% and the Potency [6] was inconclusive: 17.1 µM [falling, partial curve]. For the same molecule, the activity change, negative = inhibition [6] was inconclusive: -30.9% and the Potency [8] was “inactive”.
With `Nc1ccc(-c2ccccc2)cc1` the Potency [1] was inconclusive: 31.5 µM [inhibitor, partial curve, poor fit] and inconclusive: 48.6 µM [inhibitor, partial curve], the Potency [10] was inconclusive: 34.4 µM [fluorescent, partial curve] and the activation [10] was inconclusive: -1.64%. For the same molecule, the activity, negative = inhibition ([11]; activity, negative = inhibition: at 92.4 µM (top of the series) unless noted) was inconclusive: -47.3%, the Potency [4] was active: 19.9 µM and the activation [13] was inconclusive: 28%. For the same molecule, the Potency [8] was inconclusive: 25 µM [cytotoxic, partial curve].
For `O=C(CCl)c1ccccc1`, the Potency [1] was inconclusive: 61.1 µM [inhibitor, partial curve, poor fit], the Potency [14] was inconclusive: 68.6 µM [rising, single point] and the Potency [3] was inconclusive: 1.39 µM [inhibitor, single point] and inconclusive: 61.1 µM [inhibitor]. The Potency [10] was inconclusive: 77 µM [activator, partial curve, poor fit], the activation [10] was inconclusive: 8.7% and the Potency [15] was inconclusive: 68.6 µM [cytotoxic, partial curve]. For the same molecule, the activity change, negative = inhibition [12] was inconclusive: 12.8% and the activation [13] was inconclusive: 8.76%.
For `Nc1ccc(-c2ccc(N)c(Cl)c2)cc1Cl`, the Potency [1] was inconclusive: 50.8 µM [inhibitor], the Potency [16] was active: 7.18 µM and active: 30.6 µM and the Potency [2] was inconclusive: 6.89 µM [cytotoxic, full curve]. For the same molecule, the Potency [3] was inconclusive: 2.17 µM [inhibitor, full curve], the activation [10] was inconclusive: -4.95% and the Potency [15] was inconclusive: 64 µM [cytotoxic, partial curve, poor fit]. For the same molecule, the Potency [4] was inconclusive: 15.4 µM [cytotoxic, full curve] and inconclusive: 5.7 µM [cytotoxic, full curve] and active: 30.6 µM, the Potency [5] was inconclusive: 68.6 µM [cytotoxic, single point] and the Potency [13] was inconclusive: 68.9 µM [cytotoxic, single point] and inconclusive: 71.8 µM [cytotoxic, single point]. The activation [13] was inconclusive: -22.3%, the Potency [6] was inconclusive: 2.74 µM [rising, full curve] and inconclusive: 1.43 µM [rising, full curve] and inconclusive: 2.43 µM [rising, full curve] and the Potency [8] was inconclusive: 77 µM [cytotoxic, single point].
In the case of `O=[N+]([O-])c1c2ccccc2cc2ccccc12`, the Potency [1] was inconclusive: 27.1 µM [inhibitor, partial curve], the Potency [2] was inconclusive: 67.8 µM [cytotoxic, single point] and the Potency [15] was inconclusive: 60.4 µM [cytotoxic]. For the same molecule, the Potency [4] was inconclusive: 2.4 µM [cytotoxic, full curve, poor fit], the Potency [17] was inconclusive: 60.4 µM [activator, partial curve, poor fit] and the Potency [5] was inconclusive: 48 µM [cytotoxic, partial curve, poor fit]. For the same molecule, the Potency [13] was inconclusive: 67.8 µM [cytotoxic], the Potency [6] was inconclusive: 27.9 µM and the Potency [8] was inconclusive: 15.2 µM [cytotoxic, full curve].

Source: PubChem BioAssay (Tox21)
